Screen size: about 45,000 compounds; about 65 (0.1%) were called active. Calls come from the whole dose curve; as a rule, active = well fitted activation curve with a large enough effect; inconclusive = small, poorly fitted or top-dose-only effect; inactive = no such curve, though single readings can be large or run the other way. Some of the results follow.

This note sets out measurements from PubChem BioAssay AID1159614 (National Center for Advancing Translational Sciences (NCATS), 2016).

This experiment has as its target Galactocerebrosidase (Homo sapiens) (UniProt P54803). The experiment is described as follows: A Novel Cell-Based Assay to Identify Small Molecules for B -Galactocerebrosidase. Note: 0% is about no effect; nearly all actives have a fitted effect of over 65% in size. Particulars: 145M-Twi-hGALC-G270D cells (Twitcher mouse brain line with human GALC G270D), HMU-beta-Gal fluorescence, 48 h; series mostly up to 57.5 µM; activation: at the top concentration. The method, boiled down: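 Mutant human GALC (G270D), stably expressed in a Twitcher mouse brain cell line lacking endogenous GALC, is measured in live-treated cells via 6-hexadecanoylamino-4-methylumbelliferyl-β-galactoside hydrolysis (0.1 mM final, pH 5.2) with fluorescent detection.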
Sequence of UniProt P54803 (P54803 whole entry, looked up): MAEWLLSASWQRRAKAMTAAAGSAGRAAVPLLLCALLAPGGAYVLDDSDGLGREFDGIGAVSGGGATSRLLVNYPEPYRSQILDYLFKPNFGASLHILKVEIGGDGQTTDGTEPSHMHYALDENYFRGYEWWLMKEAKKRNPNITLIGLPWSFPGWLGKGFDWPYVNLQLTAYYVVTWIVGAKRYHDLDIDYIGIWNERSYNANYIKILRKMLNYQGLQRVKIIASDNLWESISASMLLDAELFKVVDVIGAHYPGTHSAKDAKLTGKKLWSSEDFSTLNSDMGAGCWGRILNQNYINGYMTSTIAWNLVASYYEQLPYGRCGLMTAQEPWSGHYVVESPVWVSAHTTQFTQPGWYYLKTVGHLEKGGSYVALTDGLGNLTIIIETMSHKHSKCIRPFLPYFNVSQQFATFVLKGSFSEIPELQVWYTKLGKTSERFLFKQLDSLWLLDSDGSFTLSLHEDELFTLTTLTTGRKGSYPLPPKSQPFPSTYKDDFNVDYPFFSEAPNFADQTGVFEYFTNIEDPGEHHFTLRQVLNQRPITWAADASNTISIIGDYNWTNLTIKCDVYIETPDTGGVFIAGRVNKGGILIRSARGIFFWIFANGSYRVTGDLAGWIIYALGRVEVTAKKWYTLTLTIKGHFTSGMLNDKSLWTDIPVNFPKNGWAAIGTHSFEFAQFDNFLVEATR
In the case of `COc1cccc(OCc2nc3ccccc3n2CCOc2ccccc2C)c1`, the “activation” value was inactive: -11.8%. On to `O=C(C1CC1)N1CCN(c2nc3ccc(F)cc3s2)CC1`, for which the “activation” value is inactive: -11.3%. Under `Cn1c(=O)c2c(nc(NCc3ccccc3)n2Cc2ccccc2Cl)n(C)c1=O` stands inactive: -9.14%; under `CN(C)S(=O)(=O)c1ccc2c(c1)nnn2CCNC(=O)Nc1ccc(Br)cc1`, inactive: -11.3%.

For `Cc1ccc(C)c(Nc2nn3c(=O)c4ccc(C(=O)NC5CCCCC5)cc4nc3s2)c1`, the “activation” value was inactive: -7.08%. Under `Cc1ccc(C(=O)NCC(c2cccnc2)N2CCc3ccccc32)cc1C` (stereo unspecified) stands inactive: -17.7%. With `COc1ccc(CCNC(=O)CCCCn2c(=O)c3ccccc3n(Cc3ccc(F)cc3Cl)c2=O)cc1OC`, the “activation” value was inactive: -10.4%.

`Cn1nnc2c(C(N)=O)ncn2c1=O`: the “activation” value is inactive: -13.8%. Regarding `Cc1cccc(CN2CCc3nc(N4CCN(c5ccccn5)CC4)ncc3C2)c1`, the “activation” value is inactive: 5.29%. To `Cc1c(-c2nsc(NC(=O)c3cccs3)n2)nnn1-c1ccc(Br)cc1` belongs inactive: -10.3%; to `CCC1CN(C(=O)Nc2cc(C)cc(C)c2)c2ccccc2O1` (stereo unspecified), inactive: -6.48%. With `Cc1cc(NC(=O)c2cc(-c3ccc(Cl)cc3)on2)nn1Cc1ccc(Cl)cc1`, the “activation” value was inactive: 1.74%.

Consider `CCc1ccc(NC(=O)Cn2c(=O)n(CCC(=O)NCc3ccc4c(c3)OCO4)c(=O)c3ccccc32)cc1`, for which the “activation” value is inactive: -6.57%. Under `Cc1c(C)n(Cc2ccccc2)c2ccc(C(=O)NCc3ccco3)cc12` stands inactive: -3.1%; under `COc1cccc(-n2c(SCc3ccccc3C)nc3c([nH]c4ccccc43)c2=O)c1`, inactive: -2.11%. To `CC(=O)c1ccc(NC(=O)CCc2c(C)nc3cc(-c4ccc(Cl)cc4)nn3c2C)cc1` belongs inactive: -9.56%; to `Cc1ccc(C)c(NC(=O)CN(CCc2ccccc2)S(=O)(=O)c2ccccc2)c1`, inactive: -14.8%.

As for `Cc1cccc(Cc2c(C)nc3nc(SCc4ccccc4C)nn3c2C)c1`, the “activation” value was inactive: -18.9%. Under `COc1cccc(Cn2c(=O)n(-c3ccccc3C)c(=O)c3c2c2cc(C)ccc2n3C)c1` stands inactive: -3.97%; under `COc1cccc(NC(=O)C2CCN(C(=O)N3CC(C)Oc4ccccc43)CC2)c1` (stereo unspecified), inactive: -13.4%.

In the case of `O=C(NCc1ccccc1Cl)c1ccc2c(O)c(S(=O)(=O)c3ccccc3)c(=O)[nH]c2c1`, the “activation” value is inactive: -16.4%. For `COc1ccc(Cl)cc1C(=O)Nc1ccc(-c2nnc3n2CCCCC3)cc1`, the “activation” value is inactive: -26.8%.

Take `Cc1ccc(CNC(=O)CN2C(=O)C3CCCCN3c3ccc(C(=O)N4CCCC4)cc32)cc1` (stereo unspecified): the “activation” value was inactive: -10.1%. To `CCOc1ccc(NC(=O)Cn2nnc(C(=O)Nc3ccc(OCC)cc3)c2N)cc1` belongs inactive: -12.2%. To `CC(C)CCNC(=O)[C@@H](c1ccccc1)N1Cc2ccccc2C1=O` belongs inactive: 2.14%; to `CCOC(=O)C1=C(CS(=O)(=O)c2ccc(F)cc2)NC(=O)NC1c1ccc(OCC)c(OC)c1` (stereo unspecified), inactive: 5.89%. In the case of `CCc1nn(CC(=O)NC(C)c2ccccc2)c(=O)c2cc3sccc3n12` (stereo unspecified), the “activation” value is inactive: -19.9%. To `Cc1cc(C)cc(OCC(=O)NCC2(N(C)C)CCCCC2)c1` belongs inactive: -10.4%. As for `Cc1ccc(C)c(N2CCN(c3cc(C)nc4c(-c5ccc(Cl)cc5)c(C)nn34)CC2)c1`, the “activation” value is inactive: -20%. For `O=C(COc1ccccc1-c1nc(-c2ccccc2)no1)Nc1ccccc1[N+](=O)[O-]`, the “activation” value is inactive: -10.7%. In the case of `CCCc1cc(=O)n2[nH]c(NCc3ccccc3OC)nc2n1`, the “activation” value is inactive: -9.68%.

As for `Cc1ccc(S(=O)(=O)N2CCC(c3ccncc3)CC2)c(C)c1`, the “activation” value was inactive: -5.65%. To `CC(C)(C)CC(C)(C)c1ccc(OCCOCC[N+](C)(C)Cc2ccccc2)cc1` belongs inactive: -1.92%.

On to `Cc1cc(C)cc(Nc2sc(C(=O)c3ccccc3)c(N)c2S(=O)(=O)c2ccccc2)c1`, for which the “activation” value was inactive: -5.82%.

Turning to `CCOC(=O)c1c(C)oc2nc(C)nc(NCc3ccccc3OCC)c12`, the “activation” value is inactive: -6.32%.

Take `CCOC(=O)c1ccc(NC(=O)C(Cc2ccccc2)NS(=O)(=O)c2ccc(Br)s2)cc1` (stereo unspecified): the “activation” value was inactive: -16.7%. To `COc1cc(OC)c(NS(=O)(=O)c2ccc3c(c2)NC(=O)CCS3)cc1Cl` belongs inactive: -27.5%. To `Cc1ccc(S(=O)(=O)NCCSc2nnnn2-c2ccc(Cl)c(C(=O)O)c2)cc1` belongs inactive: -5.35%; to `O=C(NCc1ccccc1Cl)C1CCCN(c2ncnc3onc(-c4ccc(F)cc4)c23)C1` (stereo unspecified), inactive: -15.5%.

Take `CCCc1nc2ccccc2n2c(-c3cccc(C)c3)c3c(=O)n(C)c(=O)n(C)c3c12`: the “activation” value was inactive: -16.1%. Under `CCOc1ccc(-c2cn3c(n2)sc2cc(C(=O)NCCCc4ccccc4)ccc23)cc1` stands inactive: -12.5%; under `Cc1nc2nc(SCc3ccc(F)cc3Cl)nn2c(C)c1Cc1ccccc1`, inactive: 1.99%. To `CCCCOc1ccc(C(=O)CCN2CCCCC2)cc1` belongs inactive: -13.4%; to `CCC1CN(C(=O)N2CCC(C(=O)Nc3cc(C)ccc3C)CC2)c2ccccc2O1` (stereo unspecified), inactive: -40%.

As for `Cc1cccc(-c2cc(NC(=O)C(C)(C)C)n(-c3ccccc3)n2)c1`, the “activation” value is inactive: -11.9%.

Regarding `COc1cc(C2c3c(oc4ccccc4c3=O)C(=O)N2c2nncs2)cc(OC)c1OC` (stereo unspecified), the “activation” value was inactive: 8.83%. For `CCCCN(C)CCCNC(=O)CN1C(=O)COc2ccc(S(=O)(=O)N3CCOCC3)cc21`, the “activation” value was inactive: -8.84%.

Consider `Cc1nc2nc(-c3ccc(Cl)cc3Cl)nn2c(C)c1CCC(=O)Nc1ccc(F)cc1`, for which the “activation” value was inactive: -8.15%.

As to `COc1cccc(N2CC(NC(=O)c3ccc4c(c3)OCO4)CC2=O)c1` (stereo unspecified), the “activation” value was inactive: -7.77%. Under `COc1ccc(-c2c(C)nn3c4c(cnc23)C(=O)CC(c2ccccc2)C4)cc1` (stereo unspecified) stands inactive: 7.02%; under `O=C(CS(=O)(=O)c1cccc2nsnc12)NCc1ccc(Cl)cc1`, inactive: -27.4%. In the case of `CC(NC(=O)c1ccc(Nc2nc3ccccc3n3nnnc23)cc1)c1ccccc1` (stereo unspecified), the “activation” value is inactive: -8.12%. Under `Cc1cc(C)c(NC(=O)CCCN2C(=O)COc3ccc(C)cc32)c(C)c1` stands inactive: -8.37%. To `COc1ccccc1N1CCN(S(=O)(=O)c2c(C)sc3ncn(CC(=O)Nc4ccc(C(F)(F)F)cc4)c(=O)c23)CC1` belongs inactive: -3.38%; to `CC(=O)c1ccc(NC(=O)C2CCCN(S(=O)(=O)c3ccc4c(c3)CCCN4C(C)=O)C2)cc1` (stereo unspecified), inactive: -19.2%; to `O=C(Cn1ccc2cc(S(=O)(=O)N3CCCCC3)ccc21)NCCc1ccc(Cl)cc1`, inactive: -4.78%. To `CCOC(=O)c1c(NC(=O)Cc2coc3cc(C)ccc23)sc2c1CCCC2` belongs inactive: -6.75%; to `O=C(O)Cc1sc(Nc2ccccc2Cl)nc1-c1ccccc1`, inactive: -13.7%; to `CCc1ccc(NC(=O)c2cc3nc(-c4ccc(C)cc4)cc(C(F)(F)F)n3n2)cc1`, inactive: -11.4%.

In the case of `COC(=O)c1sc(NC(=O)c2cc3nc(-c4ccc(Br)cc4)cc(C(F)(F)F)n3n2)c(C(=O)OC)c1C`, the “activation” value was inactive: -13.5%. Under `COc1ccc(CCNC(=O)CN(c2cc(C(F)(F)F)ccc2Cl)S(C)(=O)=O)cc1` stands inactive: 7%; under `Cc1ccc(OCC(=O)Nc2ccccc2C(=O)OCc2cc(=O)n3ccsc3n2)cc1C`, inactive: -16.8%. To `COc1ccccc1Nc1nn2c(=O)c3ccc(C(=O)N4CCCCC4)cc3nc2s1` belongs inactive: -8.33%; to `Cc1cccc(C)c1N1CC(c2nc3ccccc3n2CC(=O)OC(C)C)CC1=O` (stereo unspecified), inactive: -14.4%.

As for `CCOC(=O)c1cc(S(=O)(=O)N2CCN(c3cc(C)ccc3C)CC2)[nH]n1`, the “activation” value was inactive: -4.02%. With `COC(=O)c1ccc(NC(=O)C(=O)NCCc2sc(-c3cccc(F)c3)nc2C)cc1`, the “activation” value was inactive: -0.397%.

With `COc1cc(-c2ccno2)ccc1S(=O)(=O)N1CCN(c2ccccc2F)CC1`, the “activation” value is inactive: 0.339%. Under `CCCN(CCC)C(=O)CSc1nc2ccccc2c(=O)n1Cc1ccco1` stands inactive: -9.18%; under `COc1ccc(CC(=O)NCc2nc3cccnc3n2Cc2ccc(C)cc2)cc1`, inactive: 2.79%. Under `COc1ccc(NC(=O)CSc2nc3cc(OC)c(OC)cc3c3nc(-c4ccccc4)nn23)cc1Cl` stands inactive: -19.7%; under `Fc1ccc(-c2cc(-c3ccccc3)c3c(n2)-c2cc(F)ccc2OC3)cc1`, inactive: -4.99%; under `Cc1ccc(-c2c(C)n3c4c(=O)n(C)c(=O)n(C)c4nc3n2-c2cccc(O)c2)cc1`, inactive: -16.3%. To `CC1CCN(S(=O)(=O)c2cc3c4c(c2)CC(=O)N4CCC3)CC1` belongs inactive: -14.2%. On to `COc1ccc(S(=O)(=O)NCC(c2ccco2)N2CCOCC2)cc1` (stereo unspecified), for which the “activation” value was inactive: 10.3%. As to `Cc1cc(C)cc(NC(=O)CSc2oc(-c3cccs3)nc2S(=O)(=O)c2ccccc2)c1`, the “activation” value was inactive: -27.4%. As for `CC(=O)c1ccc(NC(=O)c2cn3c4c(ccc(Cl)c4c2=O)OC(C)C3)cc1` (stereo unspecified), the “activation” value was inactive: -13.7%.

`CCC(=O)N1c2ccc(S(=O)(=O)N3CCN(c4ccccc4)CC3)cc2CC1C` (stereo unspecified): the “activation” value is inactive: -10.2%. Under `COc1cc2c(=O)n(CCC(=O)NCC3CCCO3)c(=O)n(CC(=O)Nc3ccc(C)cc3)c2cc1OC` (stereo unspecified) stands inactive: 4.88%; under `Cc1ccc(S(=O)(=O)C(CNC(=O)C(=O)NCc2ccc(Cl)cc2)c2cccs2)cc1` (stereo unspecified), inactive: -2.41%; under `Cc1ccc(C(=O)NCCn2c(C)cc3ccccc32)cc1C`, inactive: -7.91%.

For the compound `Nc1ccc2c(c1)CN1C(=O)c3ccccc3C1=N2`, the “activation” value is inactive: -11.3% [at 23.8 µM].

In the case of `Cc1cc(C)cc(-n2nnc(-c3nc(-c4ccc5c(c4)OCO5)no3)c2C)c1`, the “activation” value is inactive: -12.3%. To `COc1cccc(C(=O)NCCSc2c(-c3ccc(F)cc3)[nH]c3ccccc23)c1OC` belongs inactive: -10.3%; to `Cc1ccc(CNC(=O)C2CCCN(S(=O)(=O)c3ccc4c(c3)oc(=O)n4C)C2)cc1` (stereo unspecified), inactive: -8.09%; to `O=C1CN(C(=O)c2ccc(S(=O)(=O)N3CCCCC3)cc2)C(c2ccc(F)cc2)c2cc(F)ccc2N1` (stereo unspecified), inactive: -27.1%.

Regarding `CC(Oc1ccc(F)cc1)C(=O)NCC1(N(C)C)CCCCC1` (stereo unspecified), the “activation” value was inactive: -2.94%.

For `Cc1c(NC(=O)c2ccc(OC(C)C)cc2)cccc1-c1nc2ncccc2o1`, the “activation” value was inactive: -9.57%.

With `Cc1ccc(S(=O)(=O)c2cn(CC(=O)Nc3ccc(C)c(Cl)c3)c3ccc(C)cc3c2=O)cc1`, the “activation” value was inactive: -8.47%. `Cc1ccc(NCc2cccn2-c2nnc(N3CCC(C(=O)NC(C)C)CC3)s2)cc1`: the “activation” value was inactive: 5.05%. Take `COc1ccc(-c2cn3nc(N4CCC(C(=O)NCc5ccccc5F)CC4)sc3n2)cc1`: the “activation” value was inactive: -3.61%. With `Cc1ccc(S(=O)(=O)N2CCCc3cc(NS(=O)(=O)c4ccc(F)c(C)c4)ccc32)cc1`, the “activation” value is inactive: -20.9%. Take `COc1ccc(-c2cc(C(F)(F)F)c(C#N)c(SCC(=O)Nc3ccc(F)cc3)n2)cc1`: the “activation” value was inactive: -4.62%. In the case of `CCCS(=O)(=O)Nc1cc(-c2cn3cccc(C)c3n2)ccc1C`, the “activation” value is inactive: -15.4%.

Take `CC(C)Oc1ccc(CNC(=O)CCCn2c(=O)c3cccn3c3ccccc32)cc1`: the “activation” value was inactive: -35.3%. In the case of `CCCC(O)C(CC)CO` (stereo unspecified), the “activation” value is inactive: -19.4%. With `CC(CN(C)C)CN1c2ccccc2CCc2ccccc21` (stereo unspecified), the “activation” value was inactive: -11.2%.
